Measured values taken from publication PMC4336329 (PLoS ONE, 2015).
In all, about 310,000 compounds went through this assay and about 2,200 (0.71%) showed an effect of 50% or more. Effects have a minus sign here. This is one part of the list.

Each compound was assayed against human ether-à-go-go-related gene (hERG) potassium channel (human, UniProt Q12809) (assay: primary screen, population patch clamp on CHO cells stably expressing hERG).
human ether-à-go-go-related gene (hERG) potassium channel, sequence (Q12809 whole entry, looked up): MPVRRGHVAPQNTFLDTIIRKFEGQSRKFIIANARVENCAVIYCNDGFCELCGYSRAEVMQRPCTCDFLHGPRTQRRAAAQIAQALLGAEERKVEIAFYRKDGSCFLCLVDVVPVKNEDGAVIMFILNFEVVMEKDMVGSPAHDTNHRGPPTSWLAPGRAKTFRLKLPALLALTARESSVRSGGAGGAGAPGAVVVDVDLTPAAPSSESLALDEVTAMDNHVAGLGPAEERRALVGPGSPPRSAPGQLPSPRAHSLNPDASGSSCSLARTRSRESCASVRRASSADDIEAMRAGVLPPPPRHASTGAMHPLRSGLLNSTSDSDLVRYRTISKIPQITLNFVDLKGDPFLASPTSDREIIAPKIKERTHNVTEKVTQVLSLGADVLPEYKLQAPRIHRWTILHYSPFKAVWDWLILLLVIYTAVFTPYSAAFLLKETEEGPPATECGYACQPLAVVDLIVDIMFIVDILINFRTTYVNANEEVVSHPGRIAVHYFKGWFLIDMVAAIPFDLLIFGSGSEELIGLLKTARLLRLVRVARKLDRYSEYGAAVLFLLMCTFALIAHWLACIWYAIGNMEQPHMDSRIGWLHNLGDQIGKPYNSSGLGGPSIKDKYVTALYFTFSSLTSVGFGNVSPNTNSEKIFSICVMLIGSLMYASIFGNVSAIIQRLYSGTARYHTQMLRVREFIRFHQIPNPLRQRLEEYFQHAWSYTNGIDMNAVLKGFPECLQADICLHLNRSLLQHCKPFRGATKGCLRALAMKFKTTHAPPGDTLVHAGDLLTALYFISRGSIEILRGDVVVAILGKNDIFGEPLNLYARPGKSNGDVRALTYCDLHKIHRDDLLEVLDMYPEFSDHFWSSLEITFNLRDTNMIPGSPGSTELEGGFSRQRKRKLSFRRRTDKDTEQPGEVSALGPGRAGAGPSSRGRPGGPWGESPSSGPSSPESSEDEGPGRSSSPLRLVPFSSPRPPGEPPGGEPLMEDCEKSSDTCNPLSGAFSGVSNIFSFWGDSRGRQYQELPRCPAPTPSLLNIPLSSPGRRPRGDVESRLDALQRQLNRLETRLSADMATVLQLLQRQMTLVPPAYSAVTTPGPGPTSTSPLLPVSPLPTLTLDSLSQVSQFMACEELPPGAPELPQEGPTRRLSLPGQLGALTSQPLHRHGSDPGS

Compound | hERG current change (%, negative = inhibition) at 1uM [%]
Cc1ccc(NN=C2c3ccccc3-c3ccccc32)cc1.Cl | 14.8
Cc1ccc(Nc2cc(C)nc3ncnn23)cc1 | 13.9
CCOc1cccc(=O)c2c(C)n(Cc3ccccc3)c(C)c12 | 5.91
CC(C)NC(=O)C(=O)NCCN1CCN(S(=O)(=O)c2ccc(Cl)cc2)CC1 | -13.1
O=C(Oc1ccccc1)c1cccc(COC(=O)c2cnccn2)c1 | 1.89
O=C(NNC(=O)c1ccccc1O)c1ccc(NS(=O)(=O)c2ccc(F)cc2)cc1 | 13
O=C(OCc1cn(Cc2ccccc2)nn1)c1ccccc1 | 8.15
CCS(=O)(=O)N1CCC(C(=O)N2CCN(Cc3ccccc3)CC2)CC1 | 3.79
CCOC(=O)C1CCN(/C=C2/C(=O)NC(=O)N(c3ccc(OCC)cc3)C2=O)CC1 | 5.75
CCN(CC)C(=O)C1=C(C)Nc2nc3ccccc3n2C1c1cccc(OC)c1 (stereo not drawn) | 8.97
Cc1cccc(C)c1-n1c(C)cc(/C=N/NC(=O)c2ccncc2)c1C | -5.21
CCn1c(CSc2ncn[nH]2)nc2cc(C(=O)O)ccc21 | 7.49
C/C=C/C(=O)Nc1nnc(C(C)C)s1 | 10.9
CCCCC1(C)Nc2ccccc2-c2nc3ccccc3n21 (stereo not drawn) | 19.3
Cc1ccc2[nH]c(C(=O)O)c(-c3ccccc3)c2c1 | 15
Cc1c(C(=O)O)nn(-c2cccc(C(F)(F)F)c2)c(=O)c1C#N | 12.2
CN=C1NN=C(c2cc(C)n(-c3c(C)n(C)n(-c4ccccc4)c3=O)c2C)CS1.Cl | 5.63
CC(=O)Nc1ccc(S(=O)(=O)N2CCSC2)cc1 | 7.34
Cc1ccc(CNC(=O)CN2CCC(C(N)=O)CC2)cc1 | 4.4
Cc1ccc(C(=O)N2CCCC(CCC(=O)N3CCN(c4ccccn4)CC3)C2)s1 (stereo not drawn) | -8.2
Cl.OC(COc1ccc(Br)cc1)CN1CCC(Cc2ccccc2)CC1 (stereo not drawn) | -83.7
Cc1ccc(O)c(NC(=O)c2ccc3c(c2)C(=O)N(CC(C)C)C3=O)c1 | 17.2
CC(C)=NNc1nc2c(c(=O)[nH]c(=O)n2C)n1CCc1ccccc1 | 3.7

Compound | hERG current change (%, negative = inhibition) at 1uM [%]
COc1ccc(-n2c(C)ccc2-c2ccccc2)cn1 | 14.7
C=C(C)C1Cc2c(C)nn(-c3cccc4cccnc34)c2C1 (stereo not drawn) | 6.3
O=C(NNC(=O)c1ccc(-c2ccc([N+](=O)[O-])cc2)o1)c1ccncc1 | 0.186
COC(=O)c1ccccc1NC(=O)Nc1nnc(N2CCC(C)CC2)s1 | 8.89
C#CCNc1nc(CC)nc2c1nnn2Cc1ccccc1F | 8
CCN(CC)CCN=Cc1c(O)n(Cc2ccco2)c(=O)[nH]c1=O | 5.75
COC(=O)C(CCCN1C(=O)c2ccccc2C1=O)(NC(C)=O)c1nn[nH]n1 (stereo not drawn) | 13.3
O=C(CSc1nnc(Cn2nnc(-c3ccccc3)n2)n1-c1ccccc1)Nc1ccccc1 | 11.7
COc1cc(-c2nnc(SCC(=O)N3CCCC3)o2)cc(OC)c1OC | 1.8
Cc1ccc(C)c(NC(=O)CCC(=O)NNC(=O)C(c2ccccc2)c2ccccc2)c1 | 12
CC1=C(C)/C(=N\OS(=O)(=O)c2ccc(C)cc2)C=CC1=O | 13.6
Oc1ccc(Nc2nc(-c3ccc(O)cc3)cs2)cc1 | 17.1
NC(=O)C1CCN(C(=O)c2ccc([N+](=O)[O-])cc2NC(=O)c2cccs2)CC1 | 6.75
COC(=O)COc1ccc2c(-c3ccc(OC)cc3)cc(=O)oc2c1 | -6.49
O=c1[nH]ncc(N2CCCCCC2)c1Cl | 15.7
CCOc1ccc(NC(=O)c2nn(-c3ccc(OC)cc3OC)c(=O)c3ccccc23)cc1 | 9.85
Cc1ccc(-c2noc(-c3cccs3)n2)cc1 | 3.63
CCC(=O)Nc1nnc(S(=O)(=O)N(CC)c2cc(C)cc(C)c2)s1 | 11.5
CCCCN=Cc1c(C)[nH]n(-c2ccccc2)c1=S | 13.8
O=C(Nc1cccnc1)c1ccc2c(c1)C(=O)N(Cc1cccnc1)C2=O | 2.58
COc1cccc(CC2(CO)CCCN(Cc3cn[nH]c3-c3ccc(F)cc3)C2)c1 (stereo not drawn) | 6.39
Clc1ccc(CSc2nnc(Cn3cnc4ccccc43)o2)cc1 | 15.6
COc1ccc(/C=C2\SC(=S)N(CCCC(=O)N3CCCCC3CCO)C2=O)cc1 (stereo not drawn) | 11.8

Compound | hERG current change (%, negative = inhibition) at 1uM [%]
NC(=O)COC(=O)c1ccc2noc(-c3ccccc3)c2c1 | 11.1
O=[N+]([O-])c1ccc2[nH]c(O)c(N=Nc3ccc(F)cc3)c2c1 | 14.3
CCCn1c(SCC(=O)c2ccc(OC)c(OC)c2)nc2c1c(=O)n(C)c(=O)n2C | 0.518
O=C(Nc1cccc(O)c1)N1CCOCC1 | 4.34
COc1ccc(NC(=O)C2CCCN(S(=O)(=O)c3c(C)n[nH]c3C)C2)cc1OC (stereo not drawn) | 11.3
COc1ccc(-c2cnnc(N/N=C/c3ccc(C)o3)n2)cc1 | 1.66
CC(=O)Nc1ccc(S(=O)(=O)Nc2ccccc2C(=O)NCc2cccnc2)cc1 | 12.9
Cc1ccc(Cl)cc1N1CCN(C(=O)c2ccc(CN3CCOCC3)cc2)CC1 | -4.42
Cc1ccc(O)c(C(=O)c2cnc3c(c2)COc2ccc(C)cc2-3)c1 | 13
Cc1nc2sc(C(c3cccs3)N3CCC4(CC3)OCCO4)c(O)n2n1 (stereo not drawn) | 4.48
O=C(CCN1C(=O)c2ccccc2C1=O)OCN1C(=O)c2ccccc2C1=O | 3.52
N#Cc1ccccc1S(=O)(=O)N1CCN(C(=O)CN2CCCC2c2cccs2)CC1 (stereo not drawn) | -3.17
CC(NC(=O)CN(C)CC(=O)Nc1ccccc1Br)c1ccccc1.O=C(O)C(=O)O (stereo not drawn) | 11.5
CC1CCN(c2nc3nonc3nc2N2CCC(C)CC2)CC1 | 1.36
CCC(Sc1nc2ncnc(N)c2[nH]1)C(=O)O (stereo not drawn) | 17
COc1ccc(C2C3(C#N)C(N)=NC(OC)(OC)C23C#N)cc1 (stereo not drawn) | 5.47
Cc1ccccc1-c1nn(-c2ccc(F)cc2F)cc1CNCCCN(C)C | 10.8
CNc1c([N+](=O)[O-])cnn1-c1ccc(C)cc1 | 6.69
COc1ccc([N+](=O)[O-])cc1NC(=O)C(C)Sc1ccccc1 (stereo not drawn) | 5.16
COC(=O)Cn1cc(/C=C2\C(=O)NC(=O)N(c3ccccc3)C2=O)c2ccccc21 | 2.82
CCCn1nnnc1NC(=O)CSc1ccc(Cl)cc1 | 11.7
OCCNc1ncnc2ccc(Br)cc12 | 11.5
Cl.O=C(CNCc1ccccc1)NC1C2CC3CC(C2)CC1C3 (stereo not drawn) | 11.9

Compound | hERG current change (%, negative = inhibition) at 1uM [%]
CN(Cc1nc(-c2cccs2)no1)CC1COCCO1 (stereo not drawn) | 7.95
Cc1ccc(NC(=O)CN2CCN(Cc3ccccc3)CC2)cc1Cl | 2.3
O=C(COC(=O)c1cc(=O)[nH]c2ccccc12)NCc1ccc(Cl)cc1 | 12.1
COc1ccccc1OCC(=O)Nc1cc(Cl)ccc1N1CCCCC1 | 9.89
O=C(O)c1ccc(S(=O)(=O)N2CCC(n3nnc4cc(C(F)(F)F)ccc43)CC2)cc1 | -32.9
O=C(CSc1ccccc1)N1CCN(c2ccccn2)CC1 | 6
CCOC(=O)CSc1nc(-c2ccccc2)nc2c1oc1ccccc12 | 11.1
CCCn1cc(CN2CCC(Cc3ccccc3)(C(=O)OCC)CC2)c(C)n1 | -14
COCc1[nH]nc2c1C(C1C=CCCC1)C(C#N)=C(N)O2 (stereo not drawn) | 0.934
CCOC(=O)C1CCCN(C(=O)Cn2nc(C)n3nc(-c4ccccc4)cc3c2=O)C1 (stereo not drawn) | -0.79
Cc1cc(C)c2c(NC(=O)CCl)nn(C)c2n1 | 15.7
O=C(CCN1C(=O)c2ccccc2C1=O)N1CCN(c2ccccc2)CC1 | -13.4
O=C(Nc1ccc([N+](=O)[O-])cn1)C1CCCCC1 | 6.15
COC(=O)C1=C(C)NC(=S)NC1c1ccc(OCC(=O)N2CCCCC2)c(OC)c1 (stereo not drawn) | 15.7
O=C1CCCCCN1C(=O)c1cccc(C(=O)N2CCCCCC2=O)c1 | 11.1
CCOC(=O)N1CCN(C(=O)c2ccc(CS(=O)Cc3ccccc3Cl)o2)CC1 (stereo not drawn) | 10.5
CCc1ccccc1N1C(=O)C2C3CC(=O)C(c4ccccc43)C2C1=O (stereo not drawn) | 14.2
CN(C)C(=O)/C=C\c1cn(-c2ccccc2)nc1-c1ccc2c(c1)OCCO2 | 10.2
CCOC(=O)C(C)Sc1nnc(CNC(=O)c2ccc(OC)cc2)n1C1CCCCC1 (stereo not drawn) | 12.7
CCNC(=S)Nc1cccc(NC(=O)c2ccccc2O)c1 | 7.53
CCc1nc(SCC(=O)N2CCCCCC2)c2c(=O)n(C)c(=O)n(C)c2n1 | 0.779
